Reference: paper PMC9574860, “Chemical Toolkit for PARK7: Potent, Selective, and High-Throughput” (Journal of Medicinal Chemistry, 2022)
The campaign covered roughly 7,900 compounds. About 400 (5.1%) showed an effect of 50% or more. The list shows a part of the results.

Each compound was assayed against Parkinson's disease protein 7 (PARK7/DJ1) (human, UniProt Q99497) (assay: primary screen, percent inhibition; read as competition with a fluorescent probe by fluorescence polarization; higher = more effect of the substance). Conditions: 100 µM.
Sequence of Parkinson's disease protein 7 (PARK7/DJ1) (Q99497 whole entry, looked up, the tested form may be a part): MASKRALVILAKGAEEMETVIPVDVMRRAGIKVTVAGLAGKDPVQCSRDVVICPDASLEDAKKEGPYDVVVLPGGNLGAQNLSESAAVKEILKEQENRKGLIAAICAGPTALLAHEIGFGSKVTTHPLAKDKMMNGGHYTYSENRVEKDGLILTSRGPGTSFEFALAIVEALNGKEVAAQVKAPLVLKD
Procedure, shortened: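 Fluorescence-polarization probe displacement (JYQ-107, 20 nM final, 2 h) after 2 h preincubation of PARK7 (0.2 μM final) with each fragment at 100 μM final. Read-out ex/em 480/520 nm; remaining activity derived from FP signal loss relative to reference controls.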
`C=CC(=O)NC(C)Cc1cc(C)nn1-c1ccccc1` (stereo not shown) showed an Inhibition % of 6.26%. `Cc1ccnc(C#N)c1C` showed an Inhibition % of 5.08%. For `Cc1c(C#N)c(NC(=O)CCl)n(C2CCCC2)c1C`, the Inhibition % was 4.13%. `C=CC(=O)NC1(C(=O)N2CCN(C)CC2)CCCC1` showed an Inhibition % of 5.2%. For `C=CC(=O)N1CCn2c(Cc3cccc(F)c3)nnc2C1`, the Inhibition % was 10.9%. `O=C1NC(C2CCCO2)C12CCC2` (stereo not shown) gave an Inhibition % of -2.83%. `C=CC(=O)N1CCCN(C)c2cc(F)ccc21` gave an Inhibition % of 12.5%. Work on `CCOc1cnc(C#N)cn1` yielded an Inhibition % of 1.65%. `c1ccc(COCC[C@H]2CO2)cc1` showed an Inhibition % of 17.1%. With `C=CC(=O)N(C)Cc1nccn1Cc1ccccc1.O=C(O)C(F)(F)F` the Inhibition % was -4.78%. For `NCCCC1(C2OCCO2)CCOCC1`, the Inhibition % was 12.3%. For `Cc1ccc(S(=O)(=O)n2cccn2)cc1C`, the Inhibition % was 10.3%. `CC(NC(=O)CCl)c1ccc(Cl)cc1` (stereo not shown) showed an Inhibition % of 6.77%. In the case of `CS(=O)(=O)OCC1CCCCO1` (stereo not shown), the Inhibition % is reported as 12.7%. `CCc1noc(CC)c1CNCc1ccccc1B(O)O` showed an Inhibition % of 2.29%. For `CNC1CCCN(C(=O)C=Cc2cccnc2)C1` (stereo not shown), the Inhibition % was 4.11%. `Cn1nnc2cc(CN3CCC(B(O)O)C3)ccc21` (stereo not shown) gave an Inhibition % of 16%. With `COc1cccc2cc(B3OC(C)(C)C(C)(C)O3)oc12` the Inhibition % was 2.09%. Compound `CN(C)C=C(C#N)c1nc2ccccc2[nH]1` has an Inhibition % of 1.92%. Work on `C=CC(=O)NCC1CC(C)OC(C)C1` (stereo not shown) yielded an Inhibition % of 11.1%. Compound `O=C(O)c1ccc(CCCl)cc1` has an Inhibition % of 8.12%. `NC(=O)c1ccccc1OCCCl` showed an Inhibition % of 2.27%. `C=C(Cl)COc1cccc2c1NC(=O)CO2` gave an Inhibition % of 5.93%. `C=CC(=O)NCC1(C(N)=O)CCCC1` was tested, and the Inhibition % was 9.87%. For `CC1(C)OB(c2cccc(OCCn3ccnc3)c2)OC1(C)C`, the Inhibition % was 7.89%. In the case of `CN1CCC(C)(CCl)CC1.Cl`, the Inhibition % is reported as 3.9%. `CN(C(=O)c1ccc(C#N)[nH]1)c1ccc(F)c(F)c1` showed an Inhibition % of 2.84%. `N#CCCN(C(=O)CCl)c1ccccc1` was tested, and the Inhibition % was 14.9%. `COc1cc(S(=O)(=O)n2ccc(C)n2)ccc1F` gave an Inhibition % of 13.7%. `C1CC(C2OCCO2)CCN1` showed an Inhibition % of 3.58%. For `Cc1nc(C#N)c(NC(=O)CSCC2CCCCO2)o1` (stereo not shown), the Inhibition % was 12.5%. In the case of `Cc1ccn(S(=O)(=O)c2ccc(C(C)(C)C)cc2)n1`, the Inhibition % is reported as 4.34%. `C=CC(=O)N1CCC(n2ccc(C(F)(F)F)n2)CC1` was tested, and the Inhibition % was 7.61%. Work on `O=C1OCCC12CCCC2` yielded an Inhibition % of 5.08%. `C=CC(=O)N1CCc2c(F)cccc2C1` gave an Inhibition % of 6.26%. `Cc1cccc(CC2CN(c3nccnc3C#N)C2)c1` gave an Inhibition % of 8.09%. Work on `Cc1cc(C)nc(S)c1` yielded an Inhibition % of 6.52%. With `C=CC(=O)N1CCOCC1c1nnc(C(C)C)o1` (stereo not shown) the Inhibition % was 10%. `O=C(CCl)c1c[nH]c2ccc(F)cc12` was tested, and the Inhibition % was 3.33%. `C/C(=C/B1OC(C)(C)C(C)(C)O1)c1ccccc1Cl` was tested, and the Inhibition % was 11.7%. Compound `N#Cc1cc(-n2cccn2)ccn1` has an Inhibition % of 29.7%. `C=CC(=O)Nc1cccc2c1CCN(S(C)(=O)=O)C2` was tested, and the Inhibition % was 3.82%. In the case of `N#Cc1ccc2c(n1)CCCC2`, the Inhibition % is reported as 7.43%. For `N#Cc1ccc(Oc2ccccc2)cn1`, the Inhibition % was 4.99%. `Cc1c(Cl)cccc1NC(=O)CNC(=O)CCl` was tested, and the Inhibition % was -0.758%. `C=CC(=O)Nc1ccc2c(c1)CCCC(=O)N2` was tested, and the Inhibition % was 4.19%. In the case of `CC1(C)OB(c2sccc2C2CC2)OC1(C)C`, the Inhibition % is reported as 1.99%. In the case of `CN1CCc2cc(B3OC(C)(C)C(C)(C)O3)ccc21`, the Inhibition % is reported as 0.886%. `N#Cc1ccc(NCC2CC(F)(F)C2)cn1` gave an Inhibition % of 10.7%. In the case of `CCc1nc(C)c(C#N)c(S)n1`, the Inhibition % is reported as 6.36%. In the case of `N#Cc1ncn(CCC(=O)Nc2ccc(Cl)cc2F)n1`, the Inhibition % is reported as 7.78%. `C=CC(=O)N1CC(CC(=O)N(C)C)c2cc(Cl)ccc21` (stereo not shown) gave an Inhibition % of 1.16%. Compound `CC(C)(C)N(Cc1cccc(F)c1)C(=O)CCl` has an Inhibition % of 3.94%. With `C=CC(=O)N1CCC(=O)Nc2ccccc21` the Inhibition % was 9.57%. `CS(=O)(=O)C(C#N)=Cc1cccc(O)c1` was tested, and the Inhibition % was 6.68%. Compound `CC(NC(=O)c1cccnc1S)C1CCOCC1` (stereo not shown) has an Inhibition % of 6.34%. `CC1CC(N(C)Cc2ccc(F)cc2)C(=O)O1` (stereo not shown) gave an Inhibition % of 11.5%. Work on `C=CC(=O)N1CCC(n2cc(Cl)cn2)CC1` yielded an Inhibition % of 7.37%. `C=CC(=O)N1CCN(c2nncn2C)CC1` gave an Inhibition % of 12.4%. Compound `C=CC(=O)N1CCOCC1c1ncnn1Cc1ccccc1` (stereo not shown) has an Inhibition % of 6.08%. Compound `CC1(C)OB(CC2CNC2)OC1(C)C.O=C(O)C(F)(F)F` has an Inhibition % of 3.69%. `CC(Cl)c1nnnn1C` (stereo not shown) showed an Inhibition % of 3.71%. Compound `C=CC(=O)NCc1c(Cl)oc2ccccc12` has an Inhibition % of 8.21%. In the case of `CSc1ccc(OCC2CO2)cc1` (stereo not shown), the Inhibition % is reported as 8.38%. Work on `C=CC(=O)NC1CCN(c2ccc(C(F)(F)F)cn2)CC1` yielded an Inhibition % of 4.21%. `C=CC(=O)NCC1(C)OCCc2sccc21` (stereo not shown) was tested, and the Inhibition % was 16.4%. `C=CC(=O)NC1(CCO)CC1` was tested, and the Inhibition % was 6.37%. `C=CCNC(=O)C(C#N)=Cc1ccc(O)cc1` gave an Inhibition % of 9.67%. `C=CC(=O)N1CCN(Cc2ccsc2)CC1` gave an Inhibition % of 12.3%. `Cc1ccc(O)c(C(=O)N2CCC(C3OCCO3)CC2)c1` showed an Inhibition % of 7.3%. For `C=CC(=O)N1CCSC(C)CC1` (stereo not shown), the Inhibition % was 5.41%. `CC1CCN(c2ccc(C#N)nc2)C(C)C1` (stereo not shown) showed an Inhibition % of 2.82%. `Cn1ccnc1C1NC(=O)C1(C)C` (stereo not shown) was tested, and the Inhibition % was 3.42%. `N#Cc1ccccc1OCC1CO1` (stereo not shown) gave an Inhibition % of 8.28%. `Cc1c(Br)cncc1B1OC(C)(C)C(C)(C)O1` gave an Inhibition % of 3.85%. `CN(C)c1ccc(Cl)cc1NC(=O)CCl` was tested, and the Inhibition % was 1.39%. In the case of `C=CC(=O)NCCc1nc2c(C)cccc2o1`, the Inhibition % is reported as 9.51%. `Cc1cc(C)cc(OC(=O)N2CCOCC2)c1` showed an Inhibition % of 6.2%. Compound `O=C(CCl)Nc1cc(Cl)cc(Cl)c1` has an Inhibition % of 9.47%. `Cn1cc(C=C(C#N)C(=O)NCc2ccco2)cn1` showed an Inhibition % of 8.57%. `CN(C)c1ccc(C=C(C#N)C(=O)O)cc1` showed an Inhibition % of -0.661%. `O=C1OCCC1N1CCN(c2ccccc2O)CC1` (stereo not shown) was tested, and the Inhibition % was 5.67%.
